# Among all 420,000 compounds or so, about 50,000 (12%) were called active. Inconclusive results, whose numbers are uncertain, are shown with a selection of clear calls. Calls follow the shape of the dose curve; as a rule, active = well fitted inhibition curve with a large enough effect; inconclusive = small, poorly fitted or top-dose-only effect; inactive = flat fitted curve, though single readings scatter. No potency is given beside an inconclusive call; the fits are too rough.
# Assay: qHTS for Inhibitors of human tyrosyl-DNA phosphodiesterase 1 (TDP1): qHTS in cells in presence of CPT; also: nearly all actives have a fitted effect of over 55% in size
# Settings: chicken DT40 Tdp1-/-;hTDP1 cells + 20 nM CPT, ATP luminescence, 48 h; activity change, negative = growth inhibition: at 46.2 µM (top of the series) unless noted
# Summary of the method: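 Chicken DT40 Tdp1-/- cells stably complemented with human TDP1 were seeded at 400 cells/well in medium containing 20 nM camptothecin, exposed to pin-transferred compounds, and grown at 37 °C for at least 48 hr. Viability was read as ATP luminescence.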
# % is scaled to controls: 0 for no effect and ±100 for the full control effect; potency is read from the fitted curve at half-maximal effect; tags tell the direction and shape of the fitted curve.
Compound,Potency,"activity change, negative = growth inhibition"
O=C(N1CCN(c2ccccc2F)CC1)C12CC3CC(CC(C3)C1)C2,"inconclusive [inhibitor, single point]",
CCc1ccc(CNC(=O)CCCn2ccc3cc(S(=O)(=O)N4CCCC4)ccc32)cc1,active: 4.61 µM,
OC(CNc1nc(C(F)(F)F)nc2ccccc12)c1ccccc1 (centres undefined),"inconclusive [inhibitor, single point]",
O=C(COC(=O)c1ccc(Cl)nc1)Nc1cc(S(=O)(=O)N2CCCCC2)ccc1Cl,active: 18.4 µM,
CC(C)c1ccc(S(=O)(=O)/N=C2\C=C(NS(=O)(=O)c3ccccc3)C(=O)c3ccccc32)cc1,"inconclusive [inhibitor, single point]",
CSc1nc(NCCOCCO)c2sc3nc(-c4ccco4)c4c(c3c2n1)CCC4,active: 18.4 µM,
COc1ccccc1NC(=O)CN1CCN(CC(=O)Nc2ccc(S(N)(=O)=O)cc2)CC1,"inconclusive [inhibitor, partial curve]",
CCn1c(COc2ccc3c(c2)OCO3)nnc1SCC(=O)c1ccc(Cl)cc1,,inconclusive: -34.8% [inhibitor]
CC(C)(O)C#Cc1cccc(-c2nc(C(=O)NCCCN3CCOCC3)cc3c2[C@H](CCO)N(S(=O)C(C)(C)C)C3)c1 (some centres undefined),inactive,
COc1ccc(N=C2S/C(=C\c3ccc(Cl)c([N+](=O)[O-])c3)C(=O)N2CCN(C)C)cc1,active: 20.6 µM,
O=C(CSc1nnc(-c2cccc(S(=O)(=O)N3CCOCC3)c2)n1C1CCCCCC1)NCc1ccccc1,active: 22.4 µM,
O=C(CN1CCN(Cc2ccccc2)CC1)Nc1cccc(C(F)(F)F)c1,inactive,
CCC(Cn1nnc2ccccc2c1=O)NC(=O)Nc1ccccc1OC (centres undefined),"inconclusive [inhibitor, single point]",
O=C(c1ccccc1Br)N1CCCC(c2nc(-c3cccs3)no2)C1 (centres undefined),"inconclusive [inhibitor, single point]",
Cc1nc(-c2ccccc2)sc1C1(C)CC(c2c(Cl)cccc2Cl)=NO1 (centres undefined),"inconclusive [inhibitor, single point]",
COc1ccc(CCNC(=O)Cc2ccc(OC)c(OC)c2)cc1OC,"inconclusive [inhibitor, full curve, poor fit]",
COc1ccc2oc3cc(C)[n+]([O-])c(-c4ccc(C)cc4)c3c2c1,"inconclusive [inhibitor, partial curve, poor fit]",
CCn1nc(C(=O)NNC(=O)c2ccccc2OCc2c(C)noc2C)c2ccccc2c1=O,"inconclusive [inhibitor, single point]",
CN(C)c1cc[n+](CC(=O)c2ccc(OC(F)F)cc2)cc1,active: 18.4 µM,
CSc1ncccc1C(=O)NC1CCCc2c1cnn2-c1ccc(C)c(C)c1 (centres undefined),active: 8.2 µM,
COc1ccc(CCc2ccc3ccccc3n2)cc1,inactive,
CCn1c(NC(=O)c2cccs2)nc2ccccc21,"inconclusive [inhibitor, single point]",
O=C(Nc1cccnc1)c1cc2c(s1)-c1ccccc1OC2,"inconclusive [inhibitor, single point]",

Compound,Potency,"activity change, negative = growth inhibition"
CCOc1ccc(-c2nc(C#N)c(N3CCN(C)CC3)o2)cc1,inactive,
CCN(CC)c1ccc2cc(S(=O)(=O)c3ccc(Cl)cc3)c(=O)oc2c1,"inconclusive [inhibitor, single point]",
COc1ccc2c(c1)c(=O)c(C(=O)c1ccccc1)cn2CC(=O)Nc1ccc2c(c1)OCO2,"inconclusive [inhibitor, single point]",
CC(C)CCNC(=O)c1cccc(C(=O)NCCC(C)C)c1,"inconclusive [inhibitor, single point]",
COc1ccc2c(CNCCc3ccc(SC)cc3)c(C(=O)O)n(Cc3ccc(F)cc3)c2c1,active: 16.4 µM,
COc1ccc(-c2nc(SC(C)C(=O)NCC3CCCO3)n[nH]2)cc1 (centres undefined),active: 8.2 µM,
Cc1ccc(-c2nc(CS(=O)(=O)CC(=O)NCCCN3CCOCC3)c(C)o2)cc1,inactive,
Cc1sc2nc(CSCC(=O)NC3(C#N)CCCCC3)[nH]c(=O)c2c1C,,inconclusive: -32.9% [inhibitor]
Cc1ccc2cc(/C=N/NC(=O)c3ccccc3[N+](=O)[O-])c(Cl)nc2c1,"inconclusive [inhibitor, single point]",
Cc1nc(-c2ccc(S(=O)(=O)Nc3cc(Cl)ccc3C)cc2)co1,inactive,
CC[C@]12c3[nH]c4ccc(Cl)cc4c3CCN1C(=O)[C@@H](CC(=O)NCCc1ccccn1)C[C@@H]2C(=O)N1CCN(C(=O)C2CC2)CC1,"inconclusive [inhibitor, single point]",
Cc1cccc(OCCSc2nncn2C)c1,"inconclusive [inhibitor, single point]",
CC(OC(=O)c1ccc(Cl)c([N+](=O)[O-])c1)C(=O)N1CCN(Cc2ccccc2)CC1 (centres undefined),"inconclusive [inhibitor, single point]",
Cc1ccccc1N1CCN(C(=O)c2ccccc2NC(=O)C2CC=CCC2C(=O)O)CC1 (centres undefined),inactive,
O=C(NC1CCCCC1)c1ccc2c(c1)OCCO2,,inconclusive: -34.8% [inhibitor]
O=c1c2ccccc2nc(/C=C/c2cccc3ccccc23)n1-c1ccc(F)cc1F,active: 23.1 µM,
C/C(=N\NC(=O)C1CC1(c1ccccc1)c1ccccc1)c1cccc([N+](=O)[O-])c1 (centres undefined),"inconclusive [inhibitor, single point]",
Cc1ccc(S(=O)(=O)N2[C@@H](Cc3ccccc3)CO[C@H]2CC(=O)c2cccs2)cc1,"inconclusive [inhibitor, single point]",
Cc1ccc(C(O)(CNCc2ccccc2)c2ccccc2)cc1 (centres undefined),"inconclusive [inhibitor, single point]",
CCNC(=S)N(CCO)Cc1cc2cc3c(cc2[nH]c1=O)OCO3,inactive,
CCS(=O)(=O)c1ncc(Cl)c(C(=O)N2CCN(c3ccc(OC)cc3)CC2)n1,"inconclusive [inhibitor, partial curve, poor fit]",
Cc1cccc(CN2C(=O)c3ccccc3Sc3ccc(C(=O)NCc4ccco4)cc32)c1,"inconclusive [inhibitor, single point]",
O=S(=O)(c1ccc(Cl)cc1)N1CCCC1c1nc(-c2cccc(Cl)c2)no1 (centres undefined),active: 23.1 µM,

Compound,Potency,"activity change, negative = growth inhibition"
Cc1ccc(C(C)C)c(OCc2ccc(C(=O)N/N=C/c3cccc(O)c3O)cc2)c1,active: 3.66 µM,
CCC(Sc1nc2c(sc3ccccc32)c(=O)n1CCc1ccc(OC)c(OC)c1)C(=O)N(CC)CC (centres undefined),active: 6.51 µM,
Cc1noc(C)c1C(=O)N1CCC2(CCN(Cc3cc(C(F)(F)F)cc(C(F)(F)F)c3)CC2)CC1,"inconclusive [inhibitor, single point]",
C#CCOCCOCCOCCNc1nc(N2CCN(C(=O)CCCCCCCCCCNC(=O)Cn3cc(C[C@@H](C)O)nn3)CC2)nc(N2CCN(C(=O)CCCCCCCCCCNC(=O)[C@@H]([C@H](C)CC)n3cc(CCCCCN)nn3)CC2)n1,active: 13 µM,
CCOc1cc(CNCc2ccncc2)cc(Cl)c1OC,inactive,
CC(=O)c1cccc(-c2ccc(CN3C(CC(C)C)C(=O)N(Cc4cn(CC5CCCCC5)nn4)CCS3(=O)=O)cc2)c1 (centres undefined),active: 20.6 µM,
COC(=O)c1ccc(Nc2ncnc3c2cnn3C)cc1,inactive,
CCc1cc2ccc(OC)cc2nc1SCC(=O)N1CCN(C(=O)c2ccco2)CC1,"inconclusive [inhibitor, single point]",
O=C(CSc1ccc(-c2ccccc2)nn1)NCC1CCCO1 (centres undefined),inactive,
COC(=O)c1ccccc1C(=O)NCc1nc(N2CCCC2)c2cccc(C)c2n1,inactive,
CC1CCN(S(=O)(=O)N2CCC(C(=O)NCc3ccccc3Cl)CC2)CC1,"inconclusive [inhibitor, single point]",
CC1=C(/C=C/C(C)=C/C=C/C(C)=C/CO)C(C)(C)CCC1,inactive,
Cc1nn(Cc2ccc(C(=O)N/N=C/c3ccncc3)o2)c(C)c1Cl,"inconclusive [inhibitor, single point]",
COc1ccc(OC)c(-c2csc(NC(=O)C3=NNC(=O)CC3)n2)c1,"inconclusive [inhibitor, single point]",
COc1cc(/C=N/NC(=O)c2cc(-c3ccco3)nc3ccccc23)cc(OC)c1O,active: 10.3 µM,
CCc1ccc(-c2cc(C)no2)cc1S(=O)(=O)NCCCN1CCN(c2ccccc2)CC1,"inconclusive [inhibitor, single point]",
Cc1cn2c(=O)cc(COC(=O)c3ccc(NC(=O)c4ccc(F)cc4)cc3)nc2s1,"inconclusive [inhibitor, single point]",
CCOc1ccccc1NC(=S)NC(=O)CCc1ccccc1,"inconclusive [inhibitor, single point]",
CN(C)/C=C/C(=O)c1cc(N2CCOCC2)ccc1[N+](=O)[O-],inactive,
Cc1cccc(OCC(=O)Nc2ccc(N3CCN(C(=O)c4ccco4)CC3)cc2)c1,active: 18.4 µM,
CCN(CC)c1ccc(NC(=O)c2cc(C)nc3c2c(C)nn3-c2ccc(C)cc2)c(C)c1,,inconclusive: -30.6% [inhibitor]
O=C(NCCCN1CCCC1=O)c1cn(-c2ccccc2)nc1-c1ccccc1,inactive,
CCN(CC)C(=O)COc1ccc2c3c(c(=O)oc2c1C)CCCC3,"inconclusive [inhibitor, single point]",

# — PubChem BioAssay AID686979 (National Center for Advancing Translational Sciences (NCATS), 2013)
